PubChem BioAssay AID1030 (National Center for Advancing Translational Sciences (NCATS), 2008)
Out of some 220,000 compounds screened, about 16,000 (7.3%) were called active. The shares of active, inactive and inconclusive entries below differ from those in the screen. Calls follow the shape of the dose curve; as a rule, active = well fitted inhibition curve with a large enough effect (not every such curve was filed as active); inconclusive = small, poorly fitted or top-dose-only effect, or another doubt; inactive = no such curve, though single readings can be large or run the other way. Potencies of inconclusive entries are left out as doubtful fits.

target: Aldehyde dehydrogenase 1A1 (Homo sapiens) (UniProt P00352); assay: qHTS Assay for Inhibitors of Aldehyde Dehydrogenase 1 (ALDH1A1); settings: Purified ALDH1A1, NADH fluorescence, propionaldehyde substrate; series mostly up to 75.3 µM
Potency is read from the fitted curve at half-maximal effect; tags tell the direction and shape of the fitted curve.

Sequence of UniProt P00352 (P00352 whole entry, looked up): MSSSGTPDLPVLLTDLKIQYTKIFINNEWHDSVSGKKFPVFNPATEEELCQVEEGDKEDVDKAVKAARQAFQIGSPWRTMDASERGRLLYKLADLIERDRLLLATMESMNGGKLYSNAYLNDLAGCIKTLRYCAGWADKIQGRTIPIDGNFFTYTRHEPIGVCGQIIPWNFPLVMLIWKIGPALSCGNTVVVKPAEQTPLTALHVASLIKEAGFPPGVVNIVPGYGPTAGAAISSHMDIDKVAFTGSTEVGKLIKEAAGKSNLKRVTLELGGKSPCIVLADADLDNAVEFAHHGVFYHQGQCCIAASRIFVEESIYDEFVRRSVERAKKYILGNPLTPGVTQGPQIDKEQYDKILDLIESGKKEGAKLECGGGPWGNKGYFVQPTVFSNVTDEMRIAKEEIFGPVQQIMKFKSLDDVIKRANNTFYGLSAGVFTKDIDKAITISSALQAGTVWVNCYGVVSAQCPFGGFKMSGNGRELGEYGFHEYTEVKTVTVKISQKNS

SMILES | Potency
O=C(NN1CCN(Cc2ccccc2Cl)CC1)c1ccc(Br)cc1 | inconclusive [inhibitor, partial curve]
O=C1c2ccccc2C(=O)N1CSc1nnc(Nc2ccccc2F)s1 | active: 7.08 µM
Nc1c(S(=O)(=O)c2cccs2)c2nc3ccccc3nc2n1CCc1ccccc1 | inconclusive [inhibitor, partial curve]
CCOc1[nH]n(-c2ccccc2)c(=O)c1C=Nc1ccccc1 | inactive
CCOC(=O)c1sc(NC(=O)c2cccc(S(=O)(=O)N3c4ccccc4CC3C)c2)cc1C (stereo not given) | inconclusive [inhibitor, partial curve]
O=C(c1ccc(F)cc1)C1CCN(Cc2cn[nH]c2-c2ccccc2)CC1 | inactive
Cc1cc(N2CCN(C)CC2)nc2ccc(NC(=S)NCCCN3CCc4ccccc4C3)cc12 | inconclusive [inhibitor, single point]
CC(=O)Nc1nc(C)c(Cc2ccccc2)c(=O)[nH]1 | inconclusive [inhibitor, single point]
O=[N+]([O-])c1ccc(O)c(Nc2ncnc3ccc(Br)cc23)c1 | inconclusive [inhibitor, partial curve]
O=C1C(c2[nH]c3ccc(S(=O)(=O)O)cc3c2O)=Nc2ccc(S(=O)(=O)O)cc21 | inconclusive [inhibitor, partial curve]
O=S(=O)(Nc1cnc2ccccc2c1)N1CCCCCC1 | inconclusive [inhibitor, partial curve]
O=C(O)c1ccc(N/N=C/c2ccc3ncccc3c2)cc1 | inconclusive [inhibitor, partial curve]
N#Cc1ccc(OCc2nnc(SCC(=O)N3CCCc4ccccc43)n2-c2ccccc2)cc1 | inconclusive [inhibitor, single point]
O=C(NCc1ccccc1)Nc1cccn(Cc2ccc(F)cc2)c1=O | inconclusive [inhibitor, single point]
CC(=O)c1ccc(-c2nnc(CCC(=O)N(C)Cc3cnc4ccccn34)o2)s1 | inactive
COCc1nn2c(N)c(C#N)cnc2c1-c1ccccc1 | inconclusive [inhibitor, single point]
NC(=O)CC[C@@H]1NC(=O)[C@H](CO)NC(=O)c2cc([N+](=O)[O-])cc(I)c2NCC[C@@H](C(N)=O)NC1=O | active: 12.6 µM
COc1ccccc1N/C(N)=N/c1nc(CSc2ccc(C)cc2)cc(=O)[nH]1 | inactive
O=C(CCNC(=O)Cn1ccc2ccccc2c1=O)NCc1ccc(F)cc1Cl | inconclusive [inhibitor, single point]
CC(=O)N1CCn2c3ccc(C)cc3c3cccc1c32 | inactive
CCC1(C)Cc2c(sc3nn[nH]c(=O)c23)CO1 (stereo not given) | inconclusive [inhibitor, single point]
O=C(COC(=O)CCSc1ccccc1)Nc1ccc(F)cc1Cl | inconclusive [inhibitor, single point]
CC/C(=N\NC(=O)c1ccc(-c2ccccc2)cc1)C12CC3CC(CC(C3)C1)C2 | active: 12.6 µM

SMILES | Potency
CC/C(C)=N/O | inactive
CC(C)N(CC(=O)O)CC(=O)O | inconclusive [inhibitor, single point]
CCC1=C(OC(=O)N(CC)CC)N2C(=O)OC(=NCCc3c[nH]c4ccccc34)[C@]2(Cc2ccccc2)[C@H]2C1=CC[C@H]1C(=O)N(CC)C(=O)[C@H]12 | inconclusive [inhibitor, single point]
CCN(CC)CCNC(=O)c1ccc2c(=O)n(CCc3ccccc3)c(=O)[nH]c2c1 | inconclusive [inhibitor, partial curve]
CC1CCN(S(=O)(=O)N2CCC(C(=O)NCCC3=CCCCC3)CC2)CC1 | inconclusive [inhibitor, full curve]
O=C(OC[C@@H](O)CO)c1ccccc1Nc1ccnc2cc(Cl)ccc12 | inactive
CCC1CCCCN1C(=O)CSc1nnc(-c2ccco2)o1 (stereo not given) | active: 20 µM
COc1ccc(-c2ccc(SCC(=O)c3ccccc3)nn2)cc1OC | active: 25.1 µM
COc1ccccc1CNC(=O)c1ccc2c(=O)n(CCCN3CCCC3=O)c(=S)[nH]c2c1 | active: 2 µM
CCC1SC(=NC(=O)c2ccc(Cl)c(Cl)c2)NC1=O (stereo not given) | inconclusive [inhibitor, single point]
Cn1c(=O)c2c(nc(N3CCOCC3)n2CC(=O)C23CC4CC(CC(C4)C2)C3)n(C)c1=O | inconclusive [inhibitor, single point]
O=C1Nc2ccc(Br)cc2C1(O)Cc1ccccn1 (stereo not given) | inactive
O=C(COC(=O)/C=C/c1ccc2c(c1)OCO2)NC1CC1 | inconclusive [inhibitor, single point]
CCCS(=O)(=O)N1CCN(Cc2ccccc2OCC)CC1 | inactive
Cc1cc(C)c(S(=O)(=O)N2CCN(c3ccc([N+](=O)[O-])c(-n4nc(C)cc4C)c3)CC2)c(C)c1 | inactive
O=C(CN1C(=O)NC2(CCCCC2)C1=O)Nc1ccc2c(c1)CCC2 | inconclusive [inhibitor, single point]
Cc1cc(Cl)cc2c1NC(=O)[C@]21[C@@H]2C(=O)N(Cc3ccccc3)C(=O)[C@@H]2[C@@H]2CCCN21 | inconclusive [inhibitor, single point]
Cc1ccsc1/C=C1/NC(=O)N(Cc2ccc(F)cc2)C1=O | inconclusive [inhibitor, partial curve, poor fit]
O=C(CNC(=S)NC(=O)c1ccc(Br)o1)c1ccccc1 | inactive
O=C(c1cn(-c2ccccc2)nc1-c1ccc(F)cc1)N1CCOCC1 | inconclusive [inhibitor, single point]
CCC(=O)Nc1ccc(N2CCN(C(=O)c3cccs3)CC2)cc1 | inconclusive [inhibitor, single point]
COc1ccc(C2c3ccc(O)cc3Oc3ncn4nc(-c5ccco5)nc4c32)cc1OC (stereo not given) | inactive
